The source gives no read counts; variants with many changes may rest on few reads.
B1: LINE1-mini (parent)
chain: GGCAGAGCUCAACACAGCGUGGCAAAGUGGCUGUGGCUAGACUGCC

Variants of: B1
Experiment: self-cleavage, relative activity (ratio to wild type); higher = more cleavage; in vitro, sequencing; the parent is a self-cleaving ribozyme

Row | Variant | self-cleavage
1 | G22U C31G U38C A39U | 0.1
2 | G22A C23U G30A C31A | 0.9
3 | G21U A24C G29U | 2.54
4 | G22C C23A G44C C46U | 0.17
5 | G21U G29A G35A | 0.27
6 | C23U A26U G30C G44U | 0.09
7 | C23A G29C C46G | 1.51
8 | C23U C31A G36C | 0.01
9 | C23G C31U G36C | 0.06
10 | C23A G27C U32A | 0.16
11 | G22U C23A C31A C37A | 0.07
12 | C23U A39U G40C | 0.11
13 | C23U A39U G40U | 0.32
14 | G22C C23A A39G | 0.07
15 | C23A U28C G40C | 0.05
16 | C23U G30U U32G C45G | 0.1
17 | G22U A25G U38G C45A | 0.01
18 | G22A U28A U38C | 0.57
19 | G22U C23G U28A | 0.35
20 | G21U C31U C46A | 0.19
21 | G21U C23A A25G A41G C46U | 0.26

Row | Variant | self-cleavage
22 | C23A G29C C31G G36C C45U | 0.29
23 | C23A G30C C45U | 0.9
24 | G21U G36A G40U | 0.42
25 | G21C G29U C31A G33U | 0.01
26 | C23U G30A U38C | 2.26
27 | G21U C23A U34A | 0.23
28 | C23U A25G A26C U38C A39U C42G | 0.02
29 | G21U G27C C45A | 0.18
30 | C23U A26G C31A G40C A41G | 0.01
31 | G22A G29U G44A | 0.17
32 | C23G G30C G36U | 0.05
33 | C23G C37G U43A C45A | 0.04
34 | G21U C23U C31U G35U | 0.05
35 | G21U A24G A39C | 0.18
36 | C23G G29A G30C C37G | 0.12
37 | C23G C37A C46U | 0.03
38 | C23U G29A A41U | 0.76
39 | G21C G29U C31G U32C G33U | 0.05
40 | G22A G30A U43C | 0.24
41 | G21C G22A G27A C42U | 0.28
42 | C23A G30C G44A | 0.2

Row | Variant | self-cleavage
43 | G21U U32G C46U | 0.12
44 | G22U G27C U28G G40A | 0.07
45 | G21U G22A G27A C42A | 0.16
46 | G21U A24C G33U | 0.11
47 | C23G G30U U38A | 0.15
48 | G22A C23A C31A | 0.16
49 | C23U G30A G33A U34G A39G C45U | 0.12
50 | G22C U38G C42A | 0.01
51 | C23A C37G C46G | 0.02
52 | G21U U32G C37G C45U | 0.1
53 | G22U G30C U38G C46A | 0.01
54 | C23G G30A G33U G44A | 0.03
55 | C23U U28G U34G U43A | 0.02
56 | G21U G27A A41G | 0.28
57 | G22C A26C C37G A41U | 0.02
58 | G22U C23A G44U C46U | 0.17
59 | C23G C37G C45G | 0.01
60 | G22U C31A G40C C45G | 0.03
61 | G22U G40A A41C | 0.06
62 | G22C A26G G40U | 0.03
63 | G22C U43C C46G | 0.08

Row | Variant | self-cleavage
64 | G22C G29U C45U C46U | 0.13
65 | C23U G27A G30U A39C G44C | 0.06
66 | G22U G40A C42A | 0.01
67 | G22A G30A C46A | 0.94
68 | C23G A26C G44U | 0.17
69 | C23A C31A G44C | 0.03
70 | C23A U34C C37A | 0.05
71 | C23A G36C G40C | 0.05
72 | C23A A39G C42A | 0.27
73 | G21U C31G U43A | 0.04
74 | C23U U32C C45A | 0.12
75 | C23U G29U G30C G35U | 0.06
76 | C23U U34A C46U | 0.33
77 | C23A U32G C37U C46G | 0.04
78 | G22A A25C C42A | 0.08
79 | G21U G33U U38C | 0.02
80 | G21C G22U G40A | 0.06
81 | C23A C31U G35A G44C C46G | 0.03
82 | C23G A24U A39G | 0.04
83 | C23U U28G G30U C45U | 1.29
